# Screen size: about 150,000 compounds; about 540 (0.36%) showed an effect of 50% or more. The list shows a part of the results.
# Test system: Plasmodium falciparum
# Test: Primary screen in NF54 nanoGlo assay, in single point, at 2uM, 72h; a lower Z score goes with more inhibition
# Format: functional, Erythrocyte
# Conditions: timepoint 72 hour
Compound,% Inhibition [%],Z score
C[C@@H](CNCc1ncc[nH]1)Oc1ccccc1Br,-9,0.92
CC1C(=O)N(CC(=O)Nc2cccc(N3CCCC3=O)c2)C(=O)C1C (stereo not given),2,-0.33
CCN1CCCn2cc(S(=O)(=O)Nc3cccc(Cl)c3)cc2C1=O,-8,0.92
C[C@H]1CCN(Cc2ccccc2)CCN1C(=O)CCc1nnc[nH]1,-11,1.15
CCCCCC1CCC(c2ccc(C(=O)Nc3cccnc3)cc2)CC1 (stereo not given),-4,0.5
CCCn1cc(CN2CCN(Cc3cc(C)cc(C)c3)C(=O)C2)c(C)n1,-7,0.88
CCOc1ncccc1C(=O)NC1CCN(c2cc(=O)[nH]c(N)n2)CC1,-9,1
CC12CCCC[C@@H]1CCC1C2CCC2(C)C1CC[C@@]2(O)CNCCO (stereo not given in full),-4,0.53
O=C(CN1CCO[C@H](c2ccc(Cl)cc2)C1)NCc1ccccn1,-1,0.07
Cc1noc(C[C@H]2CCOC3(CCN(C(=O)CCc4ccccc4)CC3)C2)n1,-10,1.36
C[C@]1(CNC(=O)Cc2cn3c(n2)CCCC3)CN(CC(=O)NC2CC2)CCO1,15,-1.96
CCc1nc(-c2ccccc2)nc(N2CCN(C(=O)c3cccs3)CC2)c1Cc1ccc(F)cc1,-13,1.96
CCC(=O)Nc1c(S(=O)(=O)c2ccc(C)cc2)c(C)c(C)n1Cc1ccco1,-9,1.12
Cc1cc(S(=O)(=O)N(C)C[C@H](C)O)c(C)o1,-4,0.53
CCc1nc(CN2C(=O)C3CC=CCC3C2=O)no1 (stereo not given),4,-0.54
CCOCCN1CCN(C(=O)Nc2ccncc2F)C[C@@H]1CC,3,-0.57
CCn1nc(C)c(C(=O)Nc2nnc3cc(C)ccn23)c1C,-20,2.16
Nc1cc(F)ccc1-c1nc(C2CCCCC2)n[nH]1,-1,0.24
Cn1n[n+](CCCCC(Cl)(Cl)Cl)c2ccccc21,65,-4.82
C[C@@H](CC#N)NS(=O)(=O)Cc1ccc(F)cc1Br,-9,1.74
COc1cccc([C@@H]2CCCCN2C(=O)c2cc(C(C)C)on2)c1,-6,0.79
CCOC1(C(=O)N[C@H](C)C(=O)N2Cc3ccccc3C2)CCCC1,-1,0.2

Compound,% Inhibition [%],Z score
Cc1ccc(C(=O)N2CCc3[nH]nc(C(=O)N4CCC(Cc5ccccc5)CC4)c3C2)cc1C,-4,0.52
O=C(NCCn1cccnc1=O)c1ccco1,14,-1.84
O=C(CCc1ccc(S(=O)(=O)N2CCCC2)cc1)Oc1ccccc1,-7,0.92
O=C(c1cn(Cc2ccccc2)nc1OCc1ccccc1)N1CCOCC1,-15,1.72
CCn1nccc1[C@@H]1CCCN1C(=O)Nc1ccc(C)c(C)c1,3,-0.53
CN(CC#N)Cc1cccc(C#N)c1F,-19,2.36
Cc1nn(C(C)C)cc1CNc1nncn1C1CC1,9,-1.64
Cc1cc2ncc(NC(=O)c3cc(C)on3)cn2n1,-17,2.17
Cn1cnc(-c2noc(Cc3ccc(F)c(F)c3)n2)c1,-2,0.4
CCCNC(=O)c1cccnc1-c1cccc(C(=O)N2CC=C(C)CC2)c1,-8,1.47
Cc1nc(N2CC(Cn3nc4c(cc3=O)CCC4)C2)c2cnn(C)c2n1,-3,0.54
O=S1(=O)C[C@H](N2CCOCC2)[C@@H](S(=O)(=O)c2ccccc2)C1,-6,0.73
Cc1cc(C)n(-c2ccc(Oc3ccccc3)c(S(=O)(=O)O)c2)n1,6,-0.7
COc1ccc2nc(NC(=O)c3c(C)noc3-c3ccc(C)cc3)sc2c1,-2,0.3
O=C(NCCc1ccccn1)c1cc2n(n1)CCN(Cc1ccccc1)C2=O,-5,0.85
COCCN1C[C@]2(CCOC2)N(C2CCN(C(=O)c3ccc(C)s3)CC2)C1=O,-2,0.24
COc1cccc(CNC(=O)c2ccc(Oc3ccccc3)cc2)c1,-14,2.62
CC(=O)Oc1cccc(N(C(C)=O)c2nc(OC(C)=O)c(C)s2)c1,-9,1.22
COc1ccc(CN2CCCC[C@@H]2CCc2ccccn2)cn1,-1,0.07
c1cc(-c2nc3cc4ccccc4cc3[nH]2)nc(-c2nc3cc4ccccc4cc3[nH]2)c1,100,-18.05
COC(=O)C[C@H](c1cccnc1)c1c(Cc2ccc3c(c2)CCO3)[nH][nH]c1=O,-5,0.6
CC(C)(C)OC(=O)N1CCC2CCC(=O)C1C2 (stereo not given),-3,0.52

Compound,% Inhibition [%],Z score
CO[C@@H](COc1ccccc1-c1nnc[nH]1)C1CCCC1,10,-1.83
O=C(CCn1cncn1)N1CCC[C@H](c2ncc3n2CCCC3)C1,-2,0.3
CC(C)n1ccc(CNC(=O)c2cn(C)nc2-c2ccco2)n1,4,-0.5
Cc1cnc(C(=O)N2CC(F)(F)C[C@H]2Cn2cc(C(=O)NCc3ccccc3)nn2)cn1,32,-3.57
COc1c(C)cc(C(=O)N2CC3CCCC3C2C(=O)O)cc1C (stereo not given),7,-0.73
CC(C)N(Cc1ccccc1)Cc1c[nH]nn1,30,-3.4
c1cncc(CCn2ccnc2-c2cc3n(n2)CCCNC3)c1,-6,0.79
CC1(C)CC(O)CC(C)(C)N1C[C@H](O)COc1cccc2ccccc12,-8,0.72
CN(C)S(=O)(=O)NC[C@H](Cc1cccc(F)c1)N1CCCC1=O,-6,0.93
CN(C)c1ncc(CNC[C@H]2CCCn3cc(C(C)(C)C)nc32)s1,-6,0.53
O=C([C@@H]1COc2ccccc2O1)N1CCN(c2ccc(-n3ccnc3)nn2)CC1,-7,1.4
Cc1ccncc1N1CCN(C(=O)c2cc3cccn3cn2)CC1,-3,0.41
Cc1cc(O)nc([C@H](C)N(C)CC2CCOCC2)n1,-12,1.59
Cc1cc(C(=O)O)nc(N2CCN(C3CCCCC3)CC2)n1,-19,2.69
COCc1ccc(-c2nc(-c3ccccn3)nn2[C@H]2CCS(=O)(=O)C2)o1,-5,0.86
Cc1cc(Cn2ccnc2-c2cncc(Br)c2)no1,-17,1.95
Cc1ccc(C2=NN(C(=O)CN(CCN3CCOCC3)C(=O)C3CCC3)[C@H](c3ccc4c(c3)OCO4)C2)cc1C,-7,0.66
CC(=O)NCCNC(=O)c1csc(-c2cc3ccccc3n2C)n1,9,-1.12
Cc1ccccc1C(=O)OC1CCN(c2nncc3ccccc23)CC1,2,-0.26
Cc1cc(N2CCN(C)CC2)ccc1NC(=O)C[C@H](NC(N)=O)c1cccc(Oc2ccccc2)c1,-3,0.5
CCC(NC(=O)OC1CCCC1)(C(F)(F)F)C(F)(F)F,9,-1.39
Cc1nnc(N2CCN(CCC(=O)N(C)CCC#N)CC2)s1,-3,0.47

Compound,% Inhibition [%],Z score
CC(C)NC(=O)Nc1ccc(Cl)c(Cl)c1,-1,0.08
Cc1ccc(C(=O)OCC(=O)NC(C)(C)C)c(O)c1,-10,1.31
CCc1nc(-c2ccc(-c3cn[nH]c3)cc2)nn1C,1,-0.25
CN(C)c1nc2c(c(=O)[nH]1)CCN(S(=O)(=O)N1CCCCCC1)C2,-6,1.15
Clc1ccc(-c2n[nH]cc2-c2nnc(-c3ccncc3)o2)cc1,2,-0.28
CC(C)(C)NC(=O)[C@]1(C)CCC(=O)N1CCc1c[nH]c2ccccc12,-2,0.29
COc1cc([C@H]2Nc3ccccc3C(=O)N2Cc2ccc3c(c2)OCO3)cc(Cl)c1OCC(N)=O,-7,0.91
O=C(CCCc1ccccc1)N1CCC(Oc2ccccn2)CC1,-5,0.97
COC(=O)Cn1cc(C(O)(c2ccccc2)c2ccccc2)nn1,-4,0.53
Cc1nnnn1CCC(=O)NCC1(C(C)C)CC1,-12,1.64
O=C1CCCN1c1cc(C(=O)N2CCC[C@H]2c2nc3ccccc3s2)ccc1Cl,10,-1.21
CC1(C)CC(=O)C(c2cc(NS(=O)(=O)c3ccc(Cl)cc3)c3ccccc3c2NS(=O)(=O)c2ccc(Cl)cc2)C(=O)C1,-12,2.06
CC(C)c1nccn1CC(=O)N(C)[C@@H](C)c1ccc(F)c(F)c1,-1,0.13
C[C@]1(c2nc(-c3nccc4[nH]ccc34)no2)CCNC(=O)C1,-1,0.22
Cc1cc(CN2CCC(CF)CC2)n(C)n1,3,-0.32
O=C(c1nc2sccn2c1-c1ncc[nH]1)N1CCCC1,2,-0.22
CC[C@](C)(NCCc1ccccc1)c1nnnn1-c1ccc(OC)cc1,-2,0.32
O=C(Nc1ccc(N2CCCN(Cc3ccc(F)cc3)C2=O)cc1)C1CCC1,-13,2.65
O=C(c1cccs1)N1CCn2nc(CN3CCC(F)(F)CC3)cc2C1,7,-1.23
